# Data reported in PubChem BioAssay AID686971 (National Center for Advancing Translational Sciences (NCATS), 2013).
# Screen size: about 360,000 compounds; about 7,500 (2.1%) were called active. Inconclusive results, whose numbers are uncertain, are shown with a selection of clear calls. The call rests on the fitted dose curve; in most records, active means well fitted cell-killing curve with a large enough effect; inconclusive means small, poorly fitted or top-dose-only effect, or effect the other way, or another doubt; inactive means no such curve, though single readings can be large or run the other way. Potencies of inconclusive entries are left out as doubtful fits.
# Experiment: qHTS for induction of synthetic lethality in tumor cells producing 2HG: qHTS for the HT-1080-IDH1KD cell line;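 on activity, negative = toxicity: 0% = DMSO wells and -100% = cell-free medium wells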
# Settings: HT-1080 IDH1 knockdown viability, ATP luminescence, 48 h; activity, negative = toxicity: at 46.1 µM (top of the series) unless noted
# In short: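 Knockdown cells (IDH1KD HT-1080) received compounds 2 h after plating at 750 cells/well and were kept 48 h at 37 °C in 5% FBS RPMI. A CellTiter-Glo luminescence read gave % activity for curve fitting.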
# Potency means the concentration at half of the fitted maximal effect; tags describe the fitted curve by direction and shape.
SMILES,Potency,"activity, negative = toxicity"
CC(=O)c1cccc(NC(=O)c2ccc(-c3c(C)noc3C)c3ccoc23)c1,"inconclusive [cytotoxic, single point]",–
O=C(OCCN1C(=O)c2cccc3c(N4CCOCC4)ccc(c23)C1=O)c1cccc(Cl)c1,active: 9.2 µM,–
O=C(C1=NOC2(C1)C(=O)Nc1ccccc12)N1CCCCC1 (centres undefined),–,inactive: 17.5%
c1csc(-c2csc3ncnc(NCCCN4CCOCC4)c23)c1,"inconclusive [cytotoxic, single point]",–
CC(CS(=O)(=O)c1ccc2c(c1)NC(=O)CS2)C(=O)NCc1ccccc1Cl (centres undefined),–,inactive: -5.48%
COc1cc(/C=C(\C#N)c2nc3ccccc3[nH]2)cc(Br)c1OCc1ccccc1,"inconclusive [cytotoxic, single point]",–
C=C1CCN(Cc2ccccc2)S(=O)(=O)c2ccccc21,–,inactive: -1.8%
C#CCOCCOCCOCCNc1nc(N2CCN(C(=O)CCCCCCCCCCNC(=O)[C@H](CCCCN)n3cc(CCO)nn3)CC2)nc(N2CCN(C(=O)CCCCCCCCCCNC(=O)[C@H](CCCN=C(N)N)n3cc(C[C@@H](C)CC)nn3)CC2)n1,"inconclusive [cytotoxic, single point]",–
CC1(C)CC(=O)C2=C(C1)c1c(ccc3ncccc13)NC2c1cccs1 (centres undefined),active: 4.11 µM,–
CCOc1ccc(N(C(=O)/C=C/C(=O)Nc2cc(C)on2)C(C(=O)NC2CCCC2)c2ccccc2C)cc1 (centres undefined),–,inactive: 5.34%
COc1ccccc1N1CCN(Cc2nc(N)nc(Nc3ccc(C)c(Cl)c3)n2)CC1,"inconclusive [cytotoxic, partial curve]",–
COc1cccc(CN2CC(C(=O)NCCc3ccccc3C(F)(F)F)CCC2=O)c1 (centres undefined),–,inactive: 0.388%
Cc1ccnc(Nc2nc(-c3ccc(O)c(O)c3)cs2)c1,"inconclusive [cytotoxic, single point]",–
O=C(CC1NCCc2ccccc21)Nc1ccc(Oc2ccccc2)cc1 (centres undefined),"inconclusive [cytotoxic, single point]",–
CCOc1ccc2nc(/N=C/c3c(C)[nH]n(-c4ccc(C)cc4)c3=O)sc2c1,"inconclusive [cytotoxic, partial curve]",–
Cc1ccccc1OCCC(=O)OCC(=O)NC1CCS(=O)(=O)C1 (centres undefined),–,inactive: -1.35%
O=C1N/C(=C\c2ccc(O)cc2)C(=O)c2ccccc21,active: 17.8 µM,–
COc1ccc(NC(=O)C(c2ccccc2)n2c(=O)c(-c3cc4ccccc4[nH]3)nc3ccccc32)cc1 (centres undefined),"inconclusive [cytotoxic, partial curve]",–
CCN(CC)c1ccc(N)cc1,active: 14.6 µM,–
N#C/C(=C\c1c(Cl)cccc1Cl)c1nc2ccccc2[nH]1,"inconclusive [cytotoxic, single point]",–
CN=C1N(C)C[C@@H]2[C@@H]3C(=O)N(C)C(=O)[C@@H]3[C@](Cc3ccccc3)(C(=O)OC)N12,–,inactive: 7.93%
CCOC(=O)c1cnc(SCc2nc(N)nc(Nc3ccccc3)n2)nc1N,–,inactive: -18.5%
COC(=O)c1ccc(-c2ccc([C@H]3[C@H]4C=CC[C@@H](C)[C@@H]4C(=O)N3Cc3ccccc3)c(F)c2)cc1,"inconclusive [cytotoxic, partial curve]",–

SMILES,Potency,"activity, negative = toxicity"
CCCCc1ccc(N2C(=O)[C@@H]3C(CC(N)=O)NC4(C(=O)Nc5ccc(F)cc54)[C@@H]3C2=O)cc1 (some centres undefined),"inconclusive [cytotoxic, single point]",–
CC1(C(=O)NCc2cccc3ccccc23)CCN1C(=O)Cc1ccc(-c2ccccc2)cc1 (centres undefined),"inconclusive [cytotoxic, single point]",–
N#Cc1ccccc1Cn1cc(/C=N/Nc2ccc([N+](=O)[O-])cn2)c2ccccc21,–,inactive: 0%
COc1ccccc1CNC(=O)[C@H](CCSC)NC(=O)[C@@H]1Cc2ccccc2CN1,–,inactive: 0.459%
COc1cc2ccccc2cc1C(=O)N(CCN(C)C)c1nc2c(OC)ccc(OC)c2s1,"inconclusive [cytotoxic, single point]",–
O=C(O)CCc1ccc(-c2ccccc2)n1-c1ccc(C(=O)O)cc1,–,inactive: 3.91%
COc1ccc(C2SCC(=O)N2c2nnc(C34CC5CC(CC(C5)C3)C4)s2)cc1 (centres undefined),–,inactive: -0.978%
c1ccc(-c2cc3c(NCC4COc5ccccc5O4)ncnc3s2)cc1 (centres undefined),"inconclusive [cytotoxic, single point]",–
Cc1cc(N=Nc2ccc3ccccc3c2)ccc1O,"inconclusive [cytotoxic, single point]",–
COc1cc(-c2nc(-c3ccc(NC(=O)c4ccc5c(c4)OCO5)cc3)no2)cc(OC)c1OC,active: 5.17 µM,–
Cc1cc(O)ccc1-c1cc(C(=O)NCc2ccc(F)cc2)[nH]n1,"inconclusive [cytotoxic, single point]",–
COc1cc(/C=C/C(=O)NCCn2c(C)cc3ccccc32)cc(OC)c1OC,–,inactive: -7.65%
CSc1nc(SCCO)c2sc3nc(-c4ccco4)c4c(c3c2n1)CC(C)(C)OC4,"inconclusive [cytotoxic, single point]",–
Cc1ccc(C)c(OCC(=O)Nc2ccc(C(=O)O)cc2NC(=O)COc2cc(C)ccc2C)c1,"inconclusive [cytotoxic, single point]",–
CCOC(=O)c1c(CN2CCOCC2)n(-c2ccccc2)c2cc(Br)c(OC)cc12,–,inconclusive: -31.2% [cytotoxic]
Cc1[nH]c2ccccc2c1NC(=O)CN1CCN(c2cccc(C(F)(F)F)c2)CC1,"inconclusive [cytotoxic, single point]",–
Cc1ccnc(NC(=O)CCCOc2ccccc2)c1,"inconclusive [rising, single point]",–
Cc1ccc(S/C=C\C(=O)c2ccccc2)cc1,active: 12.6 µM,–
CCOC(=O)SC1=N/C(=C\c2ccc(N(C)C)cc2)C(=O)S1,"inconclusive [cytotoxic, single point]",–
COc1cccc(NC(=O)CSc2c3c(nc4ccccc24)CCCC3)c1,"inconclusive [cytotoxic, single point]",–
CN(Cc1cccc2ccccc12)C(=O)c1cc(COc2c(F)cccc2F)on1,–,inactive: 1.01%
COc1ccc(NC(=O)c2cc(-c3ccc(C)o3)nc3ccccc23)c(OC)c1,"inconclusive [cytotoxic, single point]",–
O=C(CN1CCCc2ccccc21)N/N=C/c1ccccc1O,"inconclusive [cytotoxic, partial curve]",–

SMILES,Potency,"activity, negative = toxicity"
CCCCN(C(=O)c1cccc(S(=O)(=O)N2CCN(Cc3ccccc3)CC2)c1)c1ccccc1,"inconclusive [cytotoxic, single point]",–
CCN1CCN(c2ccc(NC(=O)c3ccc(Cl)c(S(=O)(=O)N4CCCC4)c3)cc2)CC1,"inconclusive [cytotoxic, single point]",–
O=C(Nc1nccs1)c1csc([C@H]2C[C@H](O)[C@@H](CO)O2)n1,–,inactive: 8.31%
Cc1cc(Br)cn2c(Cc3ccsc3)c(-c3ccco3)nc12,active: 23.1 µM,–
CCC(C)(C)NC(=O)CN(Cc1cccs1)C(=O)CCC(=O)Nc1nccs1,–,inconclusive: 33.1%
CCOC(=O)c1cccc(NC(=O)CN(c2ccc(C)cc2)S(=O)(=O)c2c(C)noc2C)c1,"inconclusive [cytotoxic, single point]",–
COc1ccc(CC(N)c2csc(Nc3ccc(C(C)=O)cc3)n2)cc1 (centres undefined),"inconclusive [cytotoxic, single point]",–
CCC1(C)Cc2c(sc3c2c2ncnn2c2nnc(SCC(=O)NCc4ccco4)n32)CO1 (centres undefined),"inconclusive [cytotoxic, single point]",–
Cc1ccsc1CN(C)CC(=O)Nc1ccc([N+](=O)[O-])cc1Cl,–,inactive: -7.98%
Cc1c(C=O)c2ccccc2n1CC(=O)NC(C)c1ccccc1 (centres undefined),–,inactive: -13.2%
CC(C)c1cccc(-c2csc(C(O)c3ccccc3)n2)c1 (centres undefined),"inconclusive [cytotoxic, single point]",–
O=C(CSc1nnc(-c2ccccn2)n1-c1ccccc1)Nc1ccc2c(c1)OCO2,active: 23.1 µM,–
Cc1ccc(CNC(=O)CNC(=S)N(Cc2ccccc2)Cc2ccccc2F)cc1,"inconclusive [cytotoxic, single point]",–
CCCN1CCN(C(=O)Nc2ccc(C(=O)OCC)cc2)CC1,–,inactive: 1.67%
COc1ccc(NC(=O)c2ccco2)cc1NC(=O)c1ccc(C#N)cc1F,"inconclusive [cytotoxic, single point]",–
O=[N+]([O-])c1cc(C(F)(F)F)ccc1NCCCCNS(=O)(=O)c1ccc(Cl)cc1,"inconclusive [cytotoxic, single point]",–
O=c1[nH]c2cc(Cl)c(Br)cc2o1,–,inconclusive: 15.6%
COc1ccc(/C=N/Nc2ccc([N+](=O)[O-])cc2)cc1Cn1cc([N+](=O)[O-])cn1,"inconclusive [cytotoxic, partial curve]",–
Cc1cc(Br)cnc1NC(=S)Nc1ccc(F)cc1F,–,inactive: -3.68%
Cc1ccc(C(NC(=O)C2CCN(Cc3ccc(Cl)c(Cl)c3)CC2)c2ccccn2)cc1 (centres undefined),"inconclusive [cytotoxic, partial curve, poor fit]",–
CCC(=O)Nc1ccc(NC(=O)CSc2nc3c(c(=O)n(C)c(=O)n3C)n2CC)cc1,"inconclusive [cytotoxic, partial curve]",–
COc1ccc(C2=NOC(C(=O)NCc3cccs3)C2)cc1 (centres undefined),active: 5.17 µM,–
C(#CSCc1ccccc1)SCc1ccccc1,–,inactive: 10.4%
